Data reported in patent US12338279B2, “Selective and potent inhibitory antibodies of myostatin activation” (SCHOLAR ROCK, INC., priority 2022, dated 2025).

Experiments:
[1] = tested on: biotinylated murine pro-myostatin; experiment: Biacore 8k SPR binding affinity, murine pro-myostatin; set-up: species or system mouse
Description: (§1) The Biacore™ 8 k SPR system was utilized to evaluate the binding affinity of myostatin antibodies to biotinylated human, murine, and cyno pro-myostatin. Biotin CAPture kit and sensor chips (Cytiva) were utilized in these experiments to immobilize the various antigens, followed by flowing a range of concentrations of each of the test antibodies.

[2] = target: T1, biotinylated cyno pro-myostatin (Macaca fascicularis, UniProt Q95J86); experiment: Biacore 8k SPR binding affinity, cyno pro-myostatin; set-up: species or system cynomolgus monkey
T1 construct: biotin (label)
Description: as §1

[3] = AC-SINS self-interaction (aggregation behavior); type: physicochemical; details: cutoff shift >5 nm in plasmon wavelength
Method in brief: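 Antibodies captured on gold nanoparticles coated with polyclonal anti-human-mAb antibodies; self-association shifts the plasmon absorbance maximum toward red. Value reported as plasmon wavelength, with 530 nm as unaggregated reference; shift >5 nm taken as self-interacting.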

[4] = tested on: biotinylated human pro-myostatin; experiment: Biacore 8k SPR binding affinity, human pro-myostatin
Description: as §1

Ka [1]	Kd (1/s) [1]	Ka [2]	Kd [2]	Ka [4]	Kd (1/s) [4]	Molecule	aggregation behavior by AC-SINS [3]
8.42e+06 M⁻¹ s⁻¹	0.00183 s⁻¹	6.39e+06 M⁻¹ s⁻¹	0.00102 s⁻¹	5.92e+06 M⁻¹ s⁻¹	0.00105 s⁻¹	Ab108: anti-pro/latent myostatin antibody; CDRs in Tables 2d-f, variable domains Table 3, chains Table 4 (antibody) heavy: EVQLVESGGGLVQPGGSLRLSCAASGSAFSSYGMSWVRQAPGKGLELVASINSNGGSTYYPDSVKGRFTISRDNAKNSLYLQMNSLRAEDTAVYYCARDLLVGFLQWSHYYGMDVWGQGTTVTVSSASTKGPSVFPLAPCSRSTSESTAALGCLVKDYFPEPVTVSWNSGALTSGVHTFPAVLQSSGLYSLSSVVTVPSSSLGTKTYTCNVDHKPSNTKVDKRV[human IgG4 Fc with S228P (EU numbers) left out] light: DIVMTQSPLSLPVTPGEPASISCRSSQSLLHSSGHNFLHWYLQKPGQSPQLLIYEVSNRVSGVPDRFSGSGSGTDFTLKISRVEAEDVGVYYCMQQTQYPPTFGGGTKVEIKRTVAAPSVFIFPPSDEQLKSGTASVVCLLNNFYPREAKVQWKVDNALQSGNSQESVTEQDSKDSTYSLSSTLTLSKADYEKHKVYACEVTHQGLSSPVTKSFNRGEC	did not display aggregation behavior
3.58e+06 M⁻¹ s⁻¹	0.000518 s⁻¹	4.21e+06 M⁻¹ s⁻¹	0.000322 s⁻¹	3.82e+06 M⁻¹ s⁻¹	0.000381 s⁻¹	Ab104: anti-pro/latent myostatin antibody; CDRs in Tables 2d-f, variable domains Table 3, chains Table 4 (antibody) heavy: EVQLVESGGGLVQPGGSLRLSCAASGSAFSSYGMSWVRQAPGKGLELVASINSNGGSTYYPDSVKGRFTISRDNAKNSLYLQMNSLRAEDTAVYYCARDLLVKFLSWSHYYGMDVWGQGTTVTVSSASTKGPSVFPLAPCSRSTSESTAALGCLVKDYFPEPVTVSWNSGALTSGVHTFPAVLQSSGLYSLSSVVTVPSSSLGTKTYTCNVDHKPSNTKVDKRV[human IgG4 Fc with S228P (EU numbers) left out] light: DIVMTQSPLSLPVTPGEPASISCRSSQSLLHSSGHNFLHWYLQKPGQSPQLLIYEVSNRVSGVPDRFSGSGSGTDFTLKISRVEAEDVGVYYCMQQTQYPPTFGGGTKVEIKRTVAAPSVFIFPPSDEQLKSGTASVVCLLNNFYPREAKVQWKVDNALQSGNSQESVTEQDSKDSTYSLSSTLTLSKADYEKHKVYACEVTHQGLSSPVTKSFNRGEC	did not display aggregation behavior
1.96e+06 M⁻¹ s⁻¹	0.000317 s⁻¹	1.91e+06 M⁻¹ s⁻¹	0.000291 s⁻¹	2e+06 M⁻¹ s⁻¹	0.000224 s⁻¹	Ab106: anti-pro/latent myostatin antibody; CDRs in Tables 2d-f, variable domains Table 3, chains Table 4 (antibody) heavy: EVQLVESGGGLVQPGGSLRLSCAASGSAFSSYGMSWVRQAPGKGLELVASINSNGGSTYYPDSVKGRFTISRDNAKNSLYLQMNSLRAEDTAVYYCARDLLVRFLEWAGYYGMDVWGQGTTVTVSSASTKGPSVFPLAPCSRSTSESTAALGCLVKDYFPEPVTVSWNSGALTSGVHTFPAVLQSSGLYSLSSVVTVPSSSLGTKTYTCNVDHKPSNTKVDKRV[human IgG4 Fc with S228P (EU numbers) left out] light: DIVMTQSPLSLPVTPGEPASISCRSSQSLLHSSGHNFLHWYLQKPGQSPQLLIYEVSNRVSGVPDRFSGSGSGTDFTLKISRVEAEDVGVYYCMQQTQYPPTFGGGTKVEIKRTVAAPSVFIFPPSDEQLKSGTASVVCLLNNFYPREAKVQWKVDNALQSGNSQESVTEQDSKDSTYSLSSTLTLSKADYEKHKVYACEVTHQGLSSPVTKSFNRGEC	did not display aggregation behavior
